Reference: the supplement of paper PMC10126150
Sequences with one replicate were seen in a single cluster, so their values are uncertain.

Test system: ATP
Assay: switch fluorescence ratio, 500 uM ATP over buffer (Cy3 cluster intensity, sum of 5 cycles each) (fold (ratio)); higher = stronger signal-on switching upon ATP binding; sequences stand for … in TCGTCGGCAGCGTCAGATGTGTATAAGAGACAGTTTTTTTTTTTTTTTTTTTTTTTTT…TC
Settings: aptamer strand: ATP DNA aptamer (quencher-CACCTGGGGGAGTATTGCGGAGGAAGG + anchor), 100 nM annealed; ATP concentration: 500 uM; one replicate
How it was run: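 Cy3-labelled switching-strand clusters on a modified Illumina MiSeq flow-cell were annealed to 100 nM quencher-labelled ATP aptamer and imaged first in selection buffer, then after 15 min with 500 uM ATP at 22 °C. NaOH stripping and re-annealing separated each of five buffer/ATP cycles, and clusters outside 100-1000 RFU were excluded. The fluorescence ratio sums target-cycle Cy3 intensity over buffer-cycle Cy3 intensity per cluster and averages it per switch-domain sequence.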
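Further: ATP exposure 15 min at 22 °C before imaging.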

Sequence | switch fluorescence ratio
AAGCCCGTGG | 0.973
TTTCCTTCCT | 1.79
CTCTATAATG | 1.02
TGCTTTATGT | 0.983
GGTCGACATT | 1.02
CGGCCTGGGC | 1.03
TGCGGCTTGC | 0.993
CAGGTTCAGA | 1.03
GTATAGATAC | 1.04
TCATCGTCGT | 0.975
AGCGCTTACA | 1.01
CTCTGGTCTT | 0.966
GAAGTGTAGG | 1.04
TACCCCGCCT | 1.15
AGTTGAATTA | 0.981
TGCGTTCTCG | 1.09
TGGATAAGTA | 0.968
AGTCCAATCC | 1.09
AGACGGGTAT | 0.997
GAGTACAGG | 1.03
AATGGGAGTT | 1.03
CTCGGGCAT | 1.19
TTATTTCAAA | 0.999
TAATTGAGCT | 0.969
GAATTCTATT | 0.994
GTTTAGACCC | 1.06

Sequence | switch fluorescence ratio
AATGGCCTAG | 1
ACCCCAATCC | 1.53
TATTGGGACC | 0.952
CCAAAAGCGG | 1.04
ATGATCCCAA | 1.05
TTAGCTATGT | 0.997
GAGCAGTCCG | 0.967
ATAAGCAAGT | 1.1
TTCCCGCGTC | 3.28
AAACAAGCGA | 1.06
TGTCTTGGAA | 1.03
ACGGCTGGGC | 1
ATTTACATAG | 1
AGGTAGACGG | 0.998
ATTACCACTA | 1.06
CGATCTAAAC | 1.06
TTCCGCCAAC | 2.42
CTCTTAGT | 0.99
AAATGTCTGT | 1.01
GATTTATCCT | 0.984
AAAAATCTTT | 0.997
TGATCACGGG | 1.02
GGAATGCG | 1.04
TTTGGGAACA | 0.985
TAGCGAGTT | 1.08
GAACTCGAAG | 1.06

Sequence | switch fluorescence ratio
AGGTCTAAGT | 0.985
CCAGACATCG | 1.06
GCGTCGACCA | 0.979
CTCATCCTAC | 1.23
TTGACAGAG | 0.933
TCTGAATAAA | 2.45
AATACCCGAT | 1.04
CAGGTATAGT | 1
CTCTGGTATT | 1.05
AAGGAGAAGT | 1.02
GCCTGGGGTT | 1.03
GTGGCACTTT | 0.976
GTATGCATTA | 1.04
GACTGCGACC | 1.29
CGAACTTCTG | 0.975
CCCCCTCCTC | 1.24
ATATTCACGC | 1.06
GTTGCCAGAG | 0.993
CACTGCCTTG | 1.05
AAGCGAGATC | 1.06
TTGAACTTGG | 0.993
TTACATAAAA | 1.04
GTAACTCGCA | 1.17
CCCGGAAT | 2.08
GTTTTCGAGA | 1.04
TCATGAGTGG | 0.988

Sequence | switch fluorescence ratio
ATAAGTAGCA | 0.977
AACGAACCAG | 1.28
CGCGTAGGCC | 0.946
TCTGGTGCCA | 0.98
TGACACATAG | 1.02
AAATTCTCTG | 1.03
TAGCTCTTG | 1.01
TGAGTTCATA | 0.98
CCTCCGTGCG | 3.96
CTTTACGTAA | 1.25
GTGATTGGCC | 0.997
TTAAAGAAG | 1.06
CTAAACCAGT | 1
CTATAATCGA | 0.934
AAGAGAGAT | 1.03
CAGGGAAGCA | 1.02
ATACTGGGAA | 1.01
TGATTGAAGG | 1.05
GACGCGGGAG | 1.34
GTGGGGAGGA | 0.943
ACTAGCGCGA | 1.29
ATAAAGGTAC | 0.984
GGCATTGGTC | 1.02
GCACTTCCAA | 1.14
GGCGAATAAC | 1.09
GCGGATTAA | 1.04

Sequence | switch fluorescence ratio
GCAGCGCAGA | 0.972
CACGTCGTTA | 1.03
GAATTTCAAC | 1.02
AGCCATCACG | 0.996
ACAGATGCG | 0.997
GCACTTGCCT | 1.04
CGTTGCTTG | 1
CGGCGGCCGA | 0.929
AACGAGGACC | 1.04
TGCAGCTCCC | 2.76
TATTTGGATT | 0.973
ATTGGTATCG | 0.99
CCATGATTTA | 1.01
TAAGATTTG | 0.976
CAAGCACTAA | 1.34
CGTTTCGCG | 0.963
GAGCTTGTG | 0.97
TAGTTAACG | 1.04
TTGGGATCCT | 1.03
GTTCCACGAT | 1.04
GGGGAGCGAA | 1.01
GTCAAAGTAG | 1
AGGACTTCTG | 0.998
AAGTACATTC | 1.23
GCGCCAGAGA | 1.02
AATAGGCACG | 1.07

Sequence | switch fluorescence ratio
ACCCTATGGG | 0.999
GACAGCCGTT | 1.01
CCATTCACTT | 1.05
TGGTGTATCG | 0.96
CATTTAAAGG | 0.969
GGCGCGTCAG | 1
TTGTATCC | 1.02
ACTCTACGGG | 1.37
TTACCGCCTA | 1.47
CATGCAGAAA | 1.01
CTGTATCGAG | 0.974
ACGGTAGGAT | 0.985
GTGCCAGAGG | 1
GGGAGACT | 1.02
TTAAGGTTGT | 0.971
GTTAACCCAG | 0.973
AAAAACCGGA | 0.927
ATATGATAGT | 0.987
GGAGATGGGA | 0.95
AGTCTTGAT | 1.01
TTGAGCAGTG | 1.04
GTGAGAGTCC | 1.11
TATAGGTGTA | 1.05
CGTCGTCCCG | 1.02
AGCCTCGGTC | 0.974
CAAGGGATTA | 0.969

Sequence | switch fluorescence ratio
GTGTGACTGG | 1.02
GGTCCCTGGC | 1.06
GTGCTTTATG | 1
CAGGGCTCAG | 1
TTTCGTTGAT | 0.966
GTATTGGCGG | 1.02
TGTGTCTCTC | 1.02
AACCTAGTG | 1.03
GTGACATTTC | 1.01
GGGAGGCTGA | 1.04
CGTAGATCG | 0.986
TGGAATAACG | 1.07
CTTCGTTAGG | 1.02
TGGTAAAGCC | 1.02
TCATTTGAAG | 0.959
AAGGATGCCT | 1.02
TCGGACTTAG | 0.989
TTGTGCGGTG | 1.17
AGTAGCAAGT | 1.18
TGCCTAAACG | 1.03
TCCTAAAGTT | 0.984
TTCCGGGACT | 1.11
TCGACACAAA | 1.53
CCCCTGATAG | 1.18
ACGTAGCGTG | 1.07
TAGCCTGTGT | 1.05

Sequence | switch fluorescence ratio
TCCATTGGC | 1.03
GATGAGTAAC | 1.02
ACTGTTAAGC | 1.04
AGGACGTCGT | 1.06
TTTGGTTTG | 0.979
TCTCTGGTAA | 1.22
TTAGGTCTCC | 1
TATTAAGTAC | 1.4
TGTAAAAAAC | 1.01
TACAAATCTC | 0.984
TGCTTCATAT | 1.04
TAATATCCCC | 1.03
CTCATTATGC | 1.12
GAAACTAAGT | 0.949
ATATGCCCGG | 0.965
CAGGCGTGCT | 0.98
GTGCACGG | 1.05
CGGCTATATC | 2.96
GACTAAACAG | 1.01
